Test results reported in the supplement of paper PMC10126150.
Sequences with one replicate were seen in a single cluster, so their values are uncertain.

Test system: ATP
Test: switch fluorescence ratio, 500 uM ATP over buffer (Cy3 cluster intensity, sum of 5 cycles each) (fold (ratio)); higher = stronger signal-on switching upon ATP binding; sequences stand for … in TCGTCGGCAGCGTCAGATGTGTATAAGAGACAGTTTTTTTTTTTTTTTTTTTTTTTTT…TC
Details: aptamer strand: ATP DNA aptamer (quencher-CACCTGGGGGAGTATTGCGGAGGAAGG + anchor), 100 nM annealed; ATP concentration: 500 uM; one replicate
Outline: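 Between each of five buffer/ATP cycles, the flow-cell was stripped with NaOH and re-annealed. Each cycle imaged Cy3-labelled switching-strand clusters, annealed to 100 nM quencher-labelled ATP aptamer on a modified Illumina MiSeq flow-cell, first in selection buffer and then after 15 min with 500 uM ATP at 22 °C. The fluorescence ratio is summed target-cycle over summed buffer-cycle Cy3 intensity per cluster, averaged per switch-domain sequence, with clusters outside 100-1000 RFU excluded.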
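Further: ATP exposure 15 min at 22 °C before imaging.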

## GCAGCTTCAG
  switch fluorescence ratio: 0.995

## TAGGTTACTT
  switch fluorescence ratio: 1.01

## AAGTAGCCCA
  switch fluorescence ratio: 1.02

## CATTTGGG
  switch fluorescence ratio: 0.984

## GCAATACAAG
  switch fluorescence ratio: 3.75

## GGTGCTCGCA
  switch fluorescence ratio: 1.01

## AGGAGACTTT
  switch fluorescence ratio: 0.989

## TTGCTTGGCT
  switch fluorescence ratio: 1.04

## TCGATTCAGA
  switch fluorescence ratio: 1.05

## TCAGTTTTTA
  switch fluorescence ratio: 0.981

## GTCTGGGTTT
  switch fluorescence ratio: 0.991

## GTCTACAAT
  switch fluorescence ratio: 1.02

## AGGCGCGTTT
  switch fluorescence ratio: 0.998

## AATTAGAGGC
  switch fluorescence ratio: 1.02

## CACCGGCAG
  switch fluorescence ratio: 1.18

## CAAACCTGCA
  switch fluorescence ratio: 2.08

## GTAATCTAAC
  switch fluorescence ratio: 1.02

## ATCGAGTTTT
  switch fluorescence ratio: 0.982

## ACTGGTTGAG
  switch fluorescence ratio: 0.955

## AGAGCTCGGG
  switch fluorescence ratio: 1.08

## TTCTTGACGA
  switch fluorescence ratio: 1.02

## AGGTGAGACT
  switch fluorescence ratio: 1.03

## ATTATTTTCG
  switch fluorescence ratio: 1.02

## GGCGCAGCGG
  switch fluorescence ratio: 1.03

## TCGACATGTA
  switch fluorescence ratio: 1.05

## AGAAGTTCAA
  switch fluorescence ratio: 1.02

## AGGGGGGCAT
  switch fluorescence ratio: 1.02

## TCTTAGCTCT
  switch fluorescence ratio: 1

## CTCCCGTGCT
  switch fluorescence ratio: 1.24

## ATTGTGCAGA
  switch fluorescence ratio: 1.04

## TCTAGACCCG
  switch fluorescence ratio: 0.961

## GCTTGCACGC
  switch fluorescence ratio: 1.03

## CAAGGGCTTA
  switch fluorescence ratio: 0.993

## TAGGGAGTCG
  switch fluorescence ratio: 0.982

## GGATAGGCT
  switch fluorescence ratio: 1.01

## TCTATTGTAT
  switch fluorescence ratio: 0.979

## TTAGTACTAC
  switch fluorescence ratio: 1.01

## CTTCTGAAAT
  switch fluorescence ratio: 1.05

## CTCTGTAGAG
  switch fluorescence ratio: 1.03

## ACGAGTTA
  switch fluorescence ratio: 0.966

## TTGTTGCGT
  switch fluorescence ratio: 0.983

## CCGGGTTAAC
  switch fluorescence ratio: 1.16

## AAAAGCCGAT
  switch fluorescence ratio: 0.973

## CATAAGTCGG
  switch fluorescence ratio: 0.955

## TCTGTTTGCC
  switch fluorescence ratio: 0.957

## CAGTAAGCGT
  switch fluorescence ratio: 0.976

## CGCGTAAGGT
  switch fluorescence ratio: 1.02

## TGTGAGAGAA
  switch fluorescence ratio: 1.03

## TGCAGAAGAG
  switch fluorescence ratio: 0.995

## GTTGAGAGCT
  switch fluorescence ratio: 0.943

## TACTTTGTAA
  switch fluorescence ratio: 0.974

## CTTGCTTTCT
  switch fluorescence ratio: 1.01

## AGACAGACCT
  switch fluorescence ratio: 1.51

## TTAGCCGGGG
  switch fluorescence ratio: 1.01

## TTTAAAGACG
  switch fluorescence ratio: 1.12

## CGTCACCCGC
  switch fluorescence ratio: 1.14

## CTAGTTCTGC
  switch fluorescence ratio: 1.07

## CCTCTGGGCA
  switch fluorescence ratio: 1.99

## ATTTAATGTG
  switch fluorescence ratio: 0.992

## AGATTAATTC
  switch fluorescence ratio: 1.01

## ATAAATGTCG
  switch fluorescence ratio: 0.929

## GCTTGCCAAC
  switch fluorescence ratio: 0.969

## GATATACAA
  switch fluorescence ratio: 1.04

## ATTGTACGAA
  switch fluorescence ratio: 1.05

## GTGGTATGTA
  switch fluorescence ratio: 0.997

## TACCCTGTCC
  switch fluorescence ratio: 1.24

## GACACCCGGA
  switch fluorescence ratio: 1.03

## GTGGTTAAA
  switch fluorescence ratio: 1.01

## TTGCCAATGG
  switch fluorescence ratio: 1.03

## ACTACCCCGA
  switch fluorescence ratio: 1.03

## ATATGGCCGA
  switch fluorescence ratio: 1.03

## TGTCCAAGAC
  switch fluorescence ratio: 1.08

## GCTGGTTGAG
  switch fluorescence ratio: 1.02

## GGCCTTGATC
  switch fluorescence ratio: 1.02

## CCAATATATC
  switch fluorescence ratio: 1.31

## GAGTTACTTA
  switch fluorescence ratio: 0.994

## AGATCGCATT
  switch fluorescence ratio: 1.11

## TCCATAGTTT
  switch fluorescence ratio: 1.05

## TTACACTATT
  switch fluorescence ratio: 1.13

## TACTCTTGTC
  switch fluorescence ratio: 0.949

## GTTACGCAT
  switch fluorescence ratio: 3.14

## CCTCACTTGC
  switch fluorescence ratio: 4.55

## TGGAGGAGGT
  switch fluorescence ratio: 1.01

## GTTAAGTGTG
  switch fluorescence ratio: 1.02

## AATCCCGGAT
  switch fluorescence ratio: 1.08

## ACCTTCACTA
  switch fluorescence ratio: 1.33

## ATGCCTGATC
  switch fluorescence ratio: 1.08

## GCTCGTCGTG
  switch fluorescence ratio: 0.974

## TTCCTTTGGA
  switch fluorescence ratio: 0.931

## TTAGTTAGGC
  switch fluorescence ratio: 1.01

## ACCAACCCGC
  switch fluorescence ratio: 2.7

## CTCTTGTATA
  switch fluorescence ratio: 1.04

## CGCGAAAAGC
  switch fluorescence ratio: 1.52

## GATCATGCAT
  switch fluorescence ratio: 1.02

## AAAGCAACGG
  switch fluorescence ratio: 1.14

## GGCAAACATG
  switch fluorescence ratio: 1.05

## TTGAGTCAGG
  switch fluorescence ratio: 1.06

## CCGATACGGA
  switch fluorescence ratio: 1.03

## AAGGAGCACT
  switch fluorescence ratio: 1.03

## TTCCTCTAGA
  switch fluorescence ratio: 1.63

## AGGCTCAAA
  switch fluorescence ratio: 0.983

## TAGGAATCAA
  switch fluorescence ratio: 0.979

## AGAAAAGTGA
  switch fluorescence ratio: 0.962

## CAATTACAAA
  switch fluorescence ratio: 1.01

## AACCATGGCT
  switch fluorescence ratio: 0.989

## ACGATTGCCC
  switch fluorescence ratio: 1.03

## TGAGACTGAA
  switch fluorescence ratio: 0.982

## CCGACTAGAT
  switch fluorescence ratio: 4.8

## GCCATGACGC
  switch fluorescence ratio: 1.04

## AAATGCTTTT
  switch fluorescence ratio: 0.958

## CCTACAGGGG
  switch fluorescence ratio: 2.77

## TAGGACTCTT
  switch fluorescence ratio: 1.02

## TAAAACCGTA
  switch fluorescence ratio: 1.1

## ACAATCGGTC
  switch fluorescence ratio: 1.05

## GCTCGTCGTA
  switch fluorescence ratio: 0.989

## TCCAATTTAG
  switch fluorescence ratio: 1.02

## GCTTATAAAA
  switch fluorescence ratio: 0.99

## GCAAGCGAGT
  switch fluorescence ratio: 1.08

## CTACCTGCTC
  switch fluorescence ratio: 1.23

## GAGATCGGAT
  switch fluorescence ratio: 1.03

## CCTGAACAGC
  switch fluorescence ratio: 0.999

## ACCAGTGCCA
  switch fluorescence ratio: 0.94

## GTAATTCGAC
  switch fluorescence ratio: 1.11

## CGTTTTAGTG
  switch fluorescence ratio: 0.962

## TAACCACAAC
  switch fluorescence ratio: 1.07

## AACAGCTGGT
  switch fluorescence ratio: 1.02

## TGCGCGCAGG
  switch fluorescence ratio: 1.03

## GGAAATCTGA
  switch fluorescence ratio: 1.04

## CATGCTAGTA
  switch fluorescence ratio: 0.985

## ATTCGAAGCT
  switch fluorescence ratio: 1

## TTCTGACGGC
  switch fluorescence ratio: 1.05

## AAAAGGACGA
  switch fluorescence ratio: 1.01

## AGAGCCCGCA
  switch fluorescence ratio: 1.07

## TTGAATTTTT
  switch fluorescence ratio: 0.98

## AGCAGCCCCC
  switch fluorescence ratio: 1.21

## TTAGCTGGGG
  switch fluorescence ratio: 1.01

## TCGCGCTTG
  switch fluorescence ratio: 0.991

## CGAGTCCAGT
  switch fluorescence ratio: 1.13

## CCGTATAGGA
  switch fluorescence ratio: 1.01

## CGAGGTGCTG
  switch fluorescence ratio: 1.03

## CATCCACTGT
  switch fluorescence ratio: 1.22

## TGTTAGAAGC
  switch fluorescence ratio: 1.01

## TGTATGCTGT
  switch fluorescence ratio: 0.991

## GATGCTCTTT
  switch fluorescence ratio: 0.995

## CAGTGCGGGG
  switch fluorescence ratio: 0.985

## CGTAATTAGC
  switch fluorescence ratio: 1.34

## TCGCACGACT
  switch fluorescence ratio: 1.46

## GGCTGTTAGC
  switch fluorescence ratio: 0.986

## TGGTGTTAAT
  switch fluorescence ratio: 0.939

## CCGGTATAGC
  switch fluorescence ratio: 1.75

## TGTTGGTGT
  switch fluorescence ratio: 1.03

## TGTGCGTCA
  switch fluorescence ratio: 0.991

## AATCGAGTCG
  switch fluorescence ratio: 1

## TATGAGAAAA
  switch fluorescence ratio: 1.1

## CCTTTTCGTT
  switch fluorescence ratio: 1.05

## AAGGGATCTT
  switch fluorescence ratio: 0.999

## GCAATGCCGT
  switch fluorescence ratio: 1.03

## ATGATTAGGG
  switch fluorescence ratio: 0.933

## TTAAATCCCA
  switch fluorescence ratio: 1.04

## GGTCGAGACG
  switch fluorescence ratio: 0.962

## TAAGCGACCT
  switch fluorescence ratio: 1.31

## TAAGGATTAA
  switch fluorescence ratio: 0.982

## CGCGTATTGG
  switch fluorescence ratio: 1.06

## GAAGT
  switch fluorescence ratio: 0.956

## TCTGGGCGAA
  switch fluorescence ratio: 0.982

## TGTAAGGTTA
  switch fluorescence ratio: 1

## GGCGTTTGTA
  switch fluorescence ratio: 1.01

## GATTTAAAT
  switch fluorescence ratio: 1.12

## GAACAGAGTC
  switch fluorescence ratio: 1.04

## GCATGACGTG
  switch fluorescence ratio: 1.01

## ATTATCCAAA
  switch fluorescence ratio: 1.01

## TCTGGGATTC
  switch fluorescence ratio: 1.02

## ACAGTGTG
  switch fluorescence ratio: 1

## AGAATTAGAT
  switch fluorescence ratio: 1

## TCTTACCCTC
  switch fluorescence ratio: 1.02

## CAGTCGAGGA
  switch fluorescence ratio: 0.992

## TCGTATTCAT
  switch fluorescence ratio: 0.969

## TCATCGTGCT
  switch fluorescence ratio: 1.01

## AAAGAAACCT
  switch fluorescence ratio: 2.34

## TTGGGTGTT
  switch fluorescence ratio: 1.02

## GTGGCGGCCG
  switch fluorescence ratio: 0.967

## ACAGTTGGGG
  switch fluorescence ratio: 1.04

## ATTTAGGGCG
  switch fluorescence ratio: 1

## TTCGCTGCAC
  switch fluorescence ratio: 3.31

## GGTCGTTACT
  switch fluorescence ratio: 1

## GACGCGTACT
  switch fluorescence ratio: 3.13

## TAAAATTCAG
  switch fluorescence ratio: 0.993

## AACGGGTTTG
  switch fluorescence ratio: 1.02

## ATGTGCTAAT
  switch fluorescence ratio: 1

## GCGCGCTAAT
  switch fluorescence ratio: 0.981

## TTCCCTGGGT
  switch fluorescence ratio: 1.05

## GTTGTCTCCG
  switch fluorescence ratio: 1.02

## TAGAGTTTA
  switch fluorescence ratio: 0.981

## TTGAAAATTC
  switch fluorescence ratio: 1.02

## TCATCTGGT
  switch fluorescence ratio: 0.991

## CGTATATAGG
  switch fluorescence ratio: 1.01

## GACGCAGCGT
  switch fluorescence ratio: 1.04

## AATGGATCCC
  switch fluorescence ratio: 1.06

## GCGCCGTTGT
  switch fluorescence ratio: 1.02

## TTAGTAGCAT
  switch fluorescence ratio: 1.04

## CGCCCGGGGC
  switch fluorescence ratio: 3.02
